# Measured values from paper PMC2909587.
# Molecular target: CENP-Q (human) (UniProt Q7L2Z9)
# Test: SEC + other: glycerol gradient centrifugation
substance,measurement,value
"CENP-Q (a stretch of the chain, sequence left out) (natural protein; other documents disagree on this pair)",stoichiometry N,8
